Source: the supplement of paper PMC4967469
A lower IC50 marks a more sensitive line; a fit beyond the top or the lowest dose is shown as a bound at that dose. AUC, from the same fit, is the share of area under the viability curve across the 256-fold dose range: 1 means no effect, lower means more sensitive. The top dose, if marked as inferred, is not printed in the source and was worked back from the curve model. For some assays here: Where an entry number is given, a second screen of the drug exists; the two often differ.

Tests used:
Assay in all cases: Viability of human cancer cell lines after 72 h of drug (GDSC screen)
[1] = compound: Cc1cc(N2CCOCC2)cc2[nH]c(-c3c(NC[C@@H](O)c4cccc(Cl)c4)cc[nH]c3=O)nc12 [BMS-536924]; settings: top dose 4 µM; screen: GDSC drug entry 1091; top dose inferred
Experimental: (§1)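 Human cancer cell lines in 384-well plates, medium with 10% serum, drug for 72 h over a 256-fold dose range (nine 2-fold or five 4-fold steps up to the top dose). Adherent lines were fixed and stained with the nucleic acid dye Syto60, suspension lines read with resazurin; signal relative to control wells, capped at 0 and 100%. One two-parameter sigmoid per drug and line, fitted in a mixed model over all curves with the slope shared within a line.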

[2] = compound: CC(C)=CC[C@@H](O)C1=CC(=O)c2c(O)ccc(O)c2C1=O [Shikonin]; settings: top dose 16 µM; top dose inferred
Experimental: as §1

[3] = compound: O=C1NC(=O)c2c1c(-c1ccccc1Cl)cc1[nH]c3ccc(O)cc3c21 [Wee1 inhibitor 681640]; settings: top dose 2 µM; top dose inferred
Experimental: as §1

[4] = compound: NC(=O)c1ccc(N(C(N)=O)c2c(F)cccc2F)nc1-c1ccc(F)cc1F [VX-702]; settings: top dose 2 µM; top dose inferred
Experimental: as §1

[5] = compound: Cc1ccc(-n2nc(C(C)(C)C)cc2NC(=O)Nc2ccc(OCCN3CCOCC3)c3ccccc23)cc1 [BIRB 0796]; settings: top dose 10 µM; top dose inferred
Experimental: as §1

[6] = compound: O=C(c1cc(Cc2n[nH]c(=O)c3ccccc23)ccc1F)N1CCN(C(=O)C2CC2)CC1 [Olaparib]
Experimental: as §1

[7] = compound: Cc1cccc(-c2[nH]c(C(C)(C)C)nc2-c2ccc3nccnc3c2)n1 [SB-525334]; settings: top dose 20 µM; top dose inferred
Experimental: as §1

[8] = top dose 5 µM, screen: GDSC drug entry 1017, top dose inferred
[9] = top dose 10 µM, screen: GDSC drug entry 1495

## GMS-10 (glioma, adherent)
[1]
  AUC: 0.923
  IC50: > 4 µM
[2]
  AUC: 0.665
  IC50: 2.86 µM
[3]
  AUC: 0.942
  IC50: > 2 µM
[4]
  AUC: 0.988
  IC50: > 2 µM
[5]
  AUC: 0.983
  IC50: > 10 µM
[6]; [8]
  AUC: 0.988
  IC50: > 5 µM
[7]
  AUC: 0.985
  IC50: > 20 µM

## H4 (glioma, adherent)
[1]
  AUC: 0.893
  IC50: > 4 µM
[2]
  AUC: 0.32
  IC50: 0.317 µM
[3]
  AUC: 0.816
  IC50: 1.1 µM
[4]
  AUC: 0.973
  IC50: > 2 µM
[5]
  AUC: 0.981
  IC50: > 10 µM
[6]; [8]
  AUC: 0.863
  IC50: 4.25 µM
[6]; [9]
  AUC: 0.846
  IC50: 7.15 µM
[7]
  AUC: 0.977
  IC50: > 20 µM

## H2373 (mesothelioma, adherent)
[1]
  AUC: 0.889
  IC50: > 4 µM
[2]
  AUC: 0.605
  IC50: 2.1 µM
[3]
  AUC: 0.947
  IC50: > 2 µM
[4]
  AUC: 0.983
  IC50: > 2 µM
[5]
  AUC: 0.931
  IC50: > 10 µM
[6]; [8]
  AUC: 0.981
  IC50: > 5 µM
[6]; [9]
  AUC: 0.895
  IC50: > 10 µM
[7]
  AUC: 0.917
  IC50: > 20 µM

## H3255 (lung adenocarcinoma, adherent)
[1]
  AUC: 0.882
  IC50: > 4 µM
[2]
  AUC: 0.68
  IC50: 3.54 µM
[3]
  AUC: 0.923
  IC50: > 2 µM
[4]
  AUC: 0.984
  IC50: > 2 µM
[5]
  AUC: 0.968
  IC50: > 10 µM
[6]; [8]
  AUC: 0.984
  IC50: > 5 µM
[6]; [9]
  AUC: 0.932
  IC50: > 10 µM
[7]
  AUC: 0.962
  IC50: > 20 µM

## HCC1143 (breast, adherent)
[1]
  AUC: 0.784
  IC50: 2.47 µM
[2]
  AUC: 0.441
  IC50: 0.647 µM
[3]
  AUC: 0.98
  IC50: > 2 µM
[4]
  AUC: 0.978
  IC50: > 2 µM
[5]
  AUC: 0.98
  IC50: > 10 µM
[6]; [8]
  AUC: 0.971
  IC50: > 5 µM
[6]; [9]
  AUC: 0.972
  IC50: > 10 µM
[7]
  AUC: 0.941
  IC50: > 20 µM

## HCC1500 (breast, adherent)
[1]
  AUC: 0.967
  IC50: > 4 µM
[2]
  AUC: 0.627
  IC50: 2.27 µM
[3]
  AUC: 0.982
  IC50: > 2 µM
[4]
  AUC: 0.954
  IC50: > 2 µM
[5]
  AUC: 0.988
  IC50: > 10 µM
[6]; [8]
  AUC: 0.964
  IC50: > 5 µM
[6]; [9]
  AUC: 0.987
  IC50: > 10 µM
[7]
  AUC: 0.931
  IC50: > 20 µM

## HCC-44 (lung adenocarcinoma, adherent)
[1]
  AUC: 0.909
  IC50: > 4 µM
[2]
  AUC: 0.395
  IC50: 0.519 µM
[3]
  AUC: 0.956
  IC50: > 2 µM
[4]
  AUC: 0.984
  IC50: > 2 µM
[5]
  AUC: 0.974
  IC50: > 10 µM
[6]; [8]
  AUC: 0.927
  IC50: > 5 µM
[6]; [9]
  AUC: 0.891
  IC50: > 10 µM
[7]
  AUC: 0.946
  IC50: > 20 µM

## HCC-827 (lung adenocarcinoma, adherent)
[1]
  AUC: 0.924
  IC50: > 4 µM
[2]
  AUC: 0.76
  IC50: 6.46 µM
[3]
  AUC: 0.96
  IC50: > 2 µM
[4]
  AUC: 0.979
  IC50: > 2 µM
[5]
  AUC: 0.984
  IC50: > 10 µM
[6]; [8]
  AUC: 0.97
  IC50: > 5 µM
[7]
  AUC: 0.96
  IC50: > 20 µM

## HDQ-P1 (breast, adherent)
[1]
  AUC: 0.968
  IC50: > 4 µM
[2]
  AUC: 0.495
  IC50: 0.964 µM
[3]
  AUC: 0.953
  IC50: > 2 µM
[4]
  AUC: 0.985
  IC50: > 2 µM
[5]
  AUC: 0.983
  IC50: > 10 µM
[6]; [8]
  AUC: 0.985
  IC50: > 5 µM
[6]; [9]
  AUC: 0.954
  IC50: > 10 µM
[7]
  AUC: 0.985
  IC50: > 20 µM
